In the supplement of paper PMC10369915:
The list shows a part of the results. Rule as the data show it: active = 3.2 or more and inactive = the rest. Only a few entries rise above the background.

How the values were obtained:
Test in all cases: enrichment score (SH2-bound / input frequency) (ratio); bacterial display of known human phosphotyrosine sites (pTyr-Var adds point mutants) read by sequencing; higher = stronger binding; tyrosines were phosphorylated by kinases first
Conditions in all cases: peptide library: pTyr-Var
SHP2 C-SH2 domain E139D = molecular target: SHP2 C-SH2 domain E139D
[1] = molecular target: SHP2 C-SH2 domain wild-type
SHP2 N-SH2 domain L43F = molecular target: SHP2 N-SH2 domain L43F
SHP2 N-SH2 domain T42A = molecular target: SHP2 N-SH2 domain T42A
SHP2 N-SH2 domain T52S = molecular target: SHP2 N-SH2 domain T52S
[2] = molecular target: SHP2 N-SH2 domain wild-type
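Also: displayed peptides selected on beads carrying the immobilized SH2 domain, with library peptides lacking any tyrosine serving as negative controls.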

Binder	enrichment score (SHP2 C-SH2 domain E139D)	enrichment score [1]	enrichment score (SHP2 N-SH2 domain L43F)	enrichment score (SHP2 N-SH2 domain T42A)	enrichment score (SHP2 N-SH2 domain T52S)	enrichment score [2]
AFLGEYIPTVF [RAC2_Y32_P29L]	inactive: 1.24	inactive: 1.16	inactive: 1.29	inactive: 1.18	inactive: 1.39	inactive: 1.15
AGQERYRAITS [RAB11B_Y73]	inactive: 0.478	inactive: 0.373	inactive: 0.417	inactive: 0.344	inactive: 0.435	inactive: 0.511
SFLFRYADDSF [RAB3C_Y50]	inactive: 1.39	inactive: 1.16	inactive: 1.27	inactive: 1.26	inactive: 1.38	inactive: 1.12
AFPGEYIPTVF [RAC1_Y32]	inactive: 1.05	inactive: 0.835	inactive: 0.883	inactive: 0.928	inactive: 1	inactive: 0.858
TGQERYRAITS [RAB11B_Y73_A68T]	inactive: 0.563	inactive: 0.393	inactive: 0.451	inactive: 0.483	inactive: 0.416	inactive: 0.483
AFHGEYIPTVF [RAC2_Y32_P29H]	inactive: 0.965	inactive: 1.13	inactive: 1.02	inactive: 1.08	inactive: 1.06	inactive: 1.09
HRDSSYYWEIE [RAF1_Y340_Q335H]	inactive: 1.11	inactive: 0.989	inactive: 0.497	inactive: 0.948	inactive: 0.97	inactive: 1.13
TAPYNYSYIFK [RAB14_Y8]	inactive: 1.77	active: 8.72	active: 6.2	active: 20.6	inactive: 2.49	inactive: 1.6
RRVLVYGGRGA [QDPR_Y16]	inactive: 0.166	inactive: 0.236	inactive: 0.211	inactive: 0.203	inactive: 0.255	inactive: 0.244
IGSQRYKLGVR [RB1_Y446]	inactive: 0.935	inactive: 0.85	inactive: 0.923	inactive: 0.684	inactive: 0.869	inactive: 0.813
KDIENYIQDGK [RAD50_Y964]	inactive: 0.768	inactive: 0.798	inactive: 0.728	inactive: 0.648	inactive: 0.71	inactive: 0.647
HRDSSYFWEIE [RAF1_Y340_Q335H_YF]	inactive: 0.925	inactive: 1.15	inactive: 0.718	inactive: 0.916	inactive: 0.751	inactive: 0.796
HRAVEYLLMGI [RAD23A_Y197_T200M]	inactive: 2.82	inactive: 2.41	inactive: 2.81	active: 4.11	inactive: 2.84	inactive: 2.97
SLMNQYVNKEF [RAB7A_Y28_K32E]	inactive: 1.08	inactive: 0.896	inactive: 1.07	inactive: 0.877	inactive: 0.966	inactive: 1.12
AGQEDDDRLRP [RAC1_Y64_Y64D]	inactive: 0.389	inactive: 0.532	inactive: 0.427	inactive: 0.562	inactive: 0.453	inactive: 0.412
SEHLIYLEFKS [RASGRP1_Y215_T214I]	inactive: 1.47	inactive: 1.47	inactive: 1.43	inactive: 1.23	inactive: 1.58	inactive: 1.42
RRVLVYRGRGA [QDPR_Y16_G17R]	inactive: 0.195	inactive: 0.274	inactive: 0.337	inactive: 0.217	inactive: 0.322	inactive: 0.269
GTCGGYCSVLG [RAB18_Y202_A198T]	inactive: 0.907	inactive: 0.8	inactive: 0.815	inactive: 0.825	inactive: 0.764	inactive: 0.85
RQQEVYLLYKQ [RARRES1_Y159_D158V]	inactive: 1.74	inactive: 1.4	inactive: 1.27	inactive: 1.43	inactive: 0.965	inactive: 1.79

Binder	enrichment score (SHP2 C-SH2 domain E139D)	enrichment score [1]	enrichment score (SHP2 N-SH2 domain L43F)	enrichment score (SHP2 N-SH2 domain T42A)	enrichment score (SHP2 N-SH2 domain T52S)	enrichment score [2]
AGQKDYDRLRP [RAC3_Y64_E62K]	inactive: 0.61	inactive: 0.562	inactive: 0.506	inactive: 0.404	inactive: 0.712	inactive: 0.514
GFILMYDITNK [RAB3C_Y110_E115K]	inactive: 1.07	inactive: 0.904	inactive: 1.32	inactive: 0.874	inactive: 1.14	inactive: 1.34
CTNPRYLAAGS [RABL3_Y185]	inactive: 0.657	inactive: 0.952	inactive: 0.831	inactive: 0.628	inactive: 0.814	inactive: 1.09
SKDQICPMKLK [RANBP17_Y823_Y823C]	inactive: 0.936	inactive: 0.646	inactive: 0.842	inactive: 0.875	inactive: 0.733	inactive: 1.09
TGILLHGLASR [QARS1_Y57_Y57H]	inactive: 1.14	inactive: 0.666	inactive: 1.04	inactive: 0.822	inactive: 0.926	inactive: 1.01
SSQHRYSTPHA [RAF1_Y232]	inactive: 0.512	inactive: 0.458	inactive: 0.524	inactive: 0.52	inactive: 0.489	inactive: 0.5
CTNPQYLAAGS [RABL3_Y185_R184Q]	inactive: 0.584	inactive: 0.597	inactive: 0.633	inactive: 0.659	inactive: 0.526	inactive: 0.772
KFSNQYKATIG [RAB7A_Y37]	inactive: 0.734	inactive: 0.698	inactive: 0.709	inactive: 0.602	inactive: 0.665	inactive: 0.809
AEMKRYAESSS [RAI14_Y869]	inactive: 0.407	inactive: 0.408	inactive: 0.425	inactive: 0.359	inactive: 0.34	inactive: 0.421
AVSHRYDLGGL [QPRT_Y162_A158V]	inactive: 0.694	inactive: 0.712	inactive: 0.825	inactive: 0.631	inactive: 1.02	inactive: 0.758
AGLEDYDRLRP [RAC3_Y64_Q61L]	inactive: 0.509	inactive: 0.417	inactive: 0.672	inactive: 0.496	inactive: 0.516	inactive: 0.468
RRVLVYVGRGA [QDPR_Y16_G17V]	inactive: 0.237	inactive: 0.152	inactive: 0.218	inactive: 0.158	inactive: 0.165	inactive: 0.233
PSPTKYSLSPS [RANBP2_Y785_R784K]	inactive: 0.626	inactive: 0.604	inactive: 0.518	inactive: 0.793	inactive: 0.722	inactive: 0.63
QRDSSYFWEIE [RAF1_Y340_YF]	inactive: 0.652	inactive: 0.906	inactive: 0.801	inactive: 0.555	inactive: 0.543	inactive: 0.49
TYEPNYGTVKR [RAPGEF6_Y1447_Q1452R]	inactive: 0.552	inactive: 0.479	inactive: 0.477	inactive: 0.518	inactive: 0.652	inactive: 0.58
RQQEVYLLFKQ [RARRES1_Y159_D158V_YF]	inactive: 1.96	inactive: 1.96	inactive: 1.79	inactive: 2.05	inactive: 1.74	inactive: 1.51
RGESFYQDTMN [RARS_Y338_R341T]	inactive: 0.602	inactive: 0.602	inactive: 0.531	inactive: 0.388	inactive: 0.523	inactive: 0.512
TSRVLYPNDNF [PYGM_Y281_I276T]	inactive: 0.69	inactive: 0.832	inactive: 0.905	inactive: 0.748	inactive: 0.746	inactive: 0.982
